# The list shows a part of the results. The main result of the screen is listed elsewhere. These columns were measured beside it and carry no call.
# What was measured:
# Assay in all cases: Primary Screen for Target Class Profiling of Small Molecule Inhibitors of Methyltransferases
# [1] = target: Glycine N-methyltransferase (Homo sapiens) (UniProt Q14749); settings: purified enzyme, MTase-Glo SAH luminescence; measured here: GNMT inhibition; at 40 µM; stronger effect = lower value
# Summary of the method: (§1)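 Each enzyme was assayed with SAM and its substrate. SAH formation detected by MTase-Glo luminescence; single-point 40 uM screen[…].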
# [2] = target: Guanidinoacetate N-methyltransferase (Homo sapiens) (UniProt Q14353); settings: purified enzyme, MTase-Glo SAH luminescence; measured here: GAMT inhibition; at 40 µM; stronger effect = lower value
# Summary of the method: as §1
# [3] = target: Histamine N-methyltransferase (Homo sapiens) (UniProt P50135); settings: purified enzyme, MTase-Glo SAH luminescence; measured here: HNMT inhibition; at 40 µM; stronger effect = lower value
# Summary of the method: as §1
# [4] = target: Nicotinamide N-methyltransferase (Homo sapiens) (UniProt P40261); settings: purified enzyme, MTase-Glo SAH luminescence; measured here: NNMT inhibition; at 40 µM; stronger effect = lower value
# Summary of the method: as §1
# [5] = target: Phenylethanolamine N-methyltransferase (Homo sapiens) (UniProt P11086); settings: purified enzyme, MTase-Glo SAH luminescence; measured here: PNMT inhibition; at 40 µM; stronger effect = lower value
# Summary of the method: as §1
# On the % scale 0 is the no-effect control and ±100 the full control effect.
SMILES,"activity change, negative = inhibition [1] [%]","activity change, negative = inhibition [2] [%]","activity change, negative = inhibition [3] [%]","activity change, negative = inhibition [4] [%]","activity change, negative = inhibition [5] [%]"
Cc1cccc(NC(=O)N2Cc3c(sc4c3CCCC4)-n3cccc3C2c2cccc(F)c2)c1 (stereo not given),2.65,1.19,2.66,1.52,4.62
Cc1ccncc1-c1c(C)nn2c1N(Cc1ccc(C(=O)O)cc1)CCC2,-5.08,-3.68,-1.73,-6.96,-6.91
CCN(CCCOc1ccc2c(Nc3cc(CC(=O)Nc4cccc(F)c4)[nH]n3)ncnc2c1)CCOP(=O)(O)O,-1.65,-3.2,3.74,-16.8,-1.55
OCC1(Cc2ccccc2)CCCN(Cc2cn[nH]c2-c2ccc(F)cc2)C1 (stereo not given),-56.6,-2.42,-9.29,-10.3,-1.83
COc1ccc2cc3n(c2c1)CC(C)(C(=O)NC1CCCCC1)N(CCCc1ccccc1)C3=O (stereo not given),3.79,0.121,5.8,7.21,0.078
CC(C)(C)c1cc(C[C@H]2CNCC[C@H]2CC(=O)NC2CCCCC2)no1,-5.89,-9.36,-4.67,-19.5,-14.5
COc1ccc(-c2nnc3c4ccccc4c(C)nn23)cc1S(=O)(=O)N1CCC(C)CC1,2.69,0,10.2,16.9,2.25
CCc1ccc(-c2cc3n(n2)CC(C)(C(=O)NC2CCCCCC2)N(CC)C3=O)cc1 (stereo not given),1.16,0,2.71,5.89,2.49
O=C(N[C@H]1CO[C@H]2[C@@H]1OC[C@@H]2Nc1nccc(-c2ccco2)n1)c1ccco1,-19.4,-4.39,-1.53,-10.4,2.6
CC(C)[C@@H](CS(=O)(=O)C(C)C)N1C(=O)[C@@](C)(CC(=O)O)C[C@H](c2cccc(Cl)c2)[C@H]1c1ccc(Cl)cc1,0.975,4.9,10.7,-18,8.08
Cc1cccc(Cn2nc3n(CC(C)C)c(=O)c4ccc(C(=O)NC5CCCC5)cc4n3c2=O)c1,0.591,1.16,4.24,1.04,3.81
COCCN(C)Cc1ccc(CC2CCN(S(=O)(=O)c3ccccc3)CC2)cc1,-4.37,3.19,-15.9,-8.2,-4.41
CC(C)[C@@H](c1ccc(C(F)(F)F)cc1CN(Cc1cc(C(F)(F)F)cc(C(F)(F)F)c1)c1nnn(C)n1)N1CCC(C(=O)O)CC1,-5.07,16.6,3.54,-14.3,-1.59
CCCN1C(=O)c2c(C(=O)NCCC(C)C)ncn2CC1(C)C(=O)NCc1ccc(F)cc1 (stereo not given),2.55,1.42,4.95,0.736,7.91
O=C(O)C[C@H]1CCC(=O)[C@@H]1C/C=C\CCO,-0.139,-2.55,4.04,-12.4,-10.9
COCc1noc([C@@H]2CC(F)(F)CN2C(=O)Cc2cccc(F)c2)n1,0.28,8.34,1.48,-1.94,-5.52
COc1ccc2cc3n(c2c1)CC(C)(C(=O)NC1CCCCC1)N(C1CCCC1)C3=O (stereo not given),2.72,-1.71,4.81,-3.72,-2.09
CCCn1c(=O)c2ccccc2n2c(SCC(=O)NCc3ccccc3)nnc12,5.05,1.08,13.3,5.65,8.9

# — PubChem BioAssay AID1745853 (National Center for Advancing Translational Sciences (NCATS), 2022)
